Experimental data as given in PubChem BioAssay AID1963576 (National Center for Advancing Translational Sciences (NCATS), 2024).
About 60 (0.1%) of roughly 46,000 compounds were called active. Inconclusive results (about 3%) are left out. Calls come from the whole dose curve; as a rule, active = well fitted inhibition curve with a large enough effect; inconclusive = small, poorly fitted or top-dose-only effect; inactive = no such curve, though single readings can be large or run the other way. Some of the results follow.

assay: Primary qHTS assay for Inhibitors of ovarian cancer metastasis using an organotypic tumor microenvironment (TME) model.; note: nearly all actives have a fitted effect of over 65% in size;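 for activity change, negative = inhibition: plate controls were DMSO wells for no effect and tomatine positive control wells for full effect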; conditions: SKOV3ip1-GFP adhesion/invasion on 3D omental model, fluorescence; series mostly up to 45.8 µM; activity change, negative = inhibition: at the top concentration
How it was run: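 qHTS, 4-pt dose (0.36-46 umol/L); SKOV3ip1-GFP, 1,200 cells/well, no FBS; primary omental fibroblast/mesothelial co-culture 48 h pre-grown; 2 h RT + 16 h 37 C; PBS wash, 4% PFA; GFP count 488/509 nm.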

outcome, inactive:
COc1ccc(NC(=O)CNC(=O)Cn2c(C)cc3ccccc3c2=O)cc1OC
Cc1ccc2c(=O)cc(C(=O)Nc3sc4c(c3C(=O)NCc3ccccc3)CCCC4)oc2c1C
O=C(CN1C(=O)CCc2cc(S(=O)(=O)N3CCOCC3)ccc21)Nc1cccc(C(F)(F)F)c1
COc1ccccc1/C=C/c1nc(C#N)c(NCCc2ccccc2)o1
CCOc1ccc(-c2nc(Cn3ccn4nc(-c5ccc(OCC)c(Cl)c5)cc4c3=O)c(C)o2)cc1
Cc1cc(=O)n2nc(N3CCC(C(=O)NCc4ccc(F)cc4)CC3)sc2n1
COc1ccc(Nc2ncc(C(=O)N3CCN(c4ccc(F)cc4)CC3)c3ccccc23)cc1
COc1ccc(CNS(=O)(=O)c2ccc(-c3cnc(C4CC4)o3)cc2)cc1
COc1ccc(C)cc1N(C)C(=O)c1c2c(nc3ccccc13)C(=O)N(C1CCCCC1)C2
COc1cc2nc(SCC(=O)Nc3ccccc3F)n3nc(-c4ccccc4)nc3c2cc1OC
COc1ccc(-c2nc3scc(CCNS(=O)(=O)c4ccc(NC(C)=O)cc4)n3n2)cc1
COc1ccccc1C(=O)N1CCN(Cc2cc(=O)oc3cc(C)ccc23)CC1
CCc1ccc(NC(=O)CSc2nc3c(sc4ccccc43)c(=O)n2CCCOC(C)C)cc1
CCCNC(=O)Cn1nc(-c2ccc(F)cc2)c2cnc3ccc(F)cc3c21
Cn1c(=O)[nH]c2cc(-c3noc(-c4cccc(Cl)c4)n3)ccc21
CCN(Cc1ccccc1)S(=O)(=O)c1ccc2c(c1)CC(C)N2C(=O)C1CCC1 (stereo not drawn)
COc1cccc(CNC(=O)c2cc3c(=O)oc4ccc(C)cc4c3s2)c1
CCOc1ccc(OCC)c(NS(=O)(=O)c2ccc(-c3coc(C)n3)cc2)c1
COc1ccc(-c2nnc(SCc3cccc(Cl)c3)o2)cc1
Cn1cnc2c(=O)oc3ccc(S(=O)(=O)Nc4ccc(F)cc4)cc3c21
COc1cccc(C2C(C(=O)Nc3ccc(C)cc3C)=C(C)Nc3nc4ccccc4n32)c1OC (stereo not drawn)
CCOC(=O)c1cc(S(=O)(=O)N2CCN(c3ccccc3F)CC2)[nH]n1
Cc1nc2ccc(S(=O)(=O)N(C)CC(=O)Nc3cccc(C(F)(F)F)c3)cc2s1

Activity change, negative = inhibition, inactive:
O=C(Nc1sc2c(c1C(=O)N1CCCCC1)CCCC2)c1ccccc1Cl -9.83%
Cc1noc(Cn2c(=O)c3cc4c(cc3n(CC(=O)Nc3ccccc3Br)c2=O)OCO4)n1 -10.4%
CCCCN1C(C(=O)c2ccccc2)=C(OC(C)=O)c2ccccc2S1(=O)=O -10.1%
CN(C)c1ccc(CNC(=O)CCS(=O)(=O)c2ccc3c(c2)oc(=O)n3C)cc1 1.96%
CCOc1cccc(C(=O)Nc2cc(-c3ccc(C)cc3)no2)c1 -10.5%
CCCCCCOc1ccc(C2C(=O)N(C3CCCCC3)CC(=O)N2CCCC)cc1 (stereo not drawn) 8.89%
CCCCN(CCCC)C1=C(C(=O)c2ccccc2)N(C)S(=O)(=O)c2ccccc21 -4.18%
Cc1ccccc1CNC(=O)CN(c1cccc(C)c1C)S(C)(=O)=O 1.43%
CCCS(=O)(=O)N1CCCC(C(=O)NCCOC)C1 (stereo not drawn) 20.1%
Cc1ccccc1Nc1cc(C(=O)NCc2cccs2)c2ccccc2n1 4.52%
C=C(C)Cn1c(=O)c2c(nc3n2CCN3c2ccc(F)cc2)n(C)c1=O 34.4%
CCOc1ccc(NCc2cccn2-c2nnc(N3CCC(C(=O)NCCOC)CC3)s2)cc1 33.7%
Cc1cccc(OCCn2c(SCC(=O)O)nc3ccccc32)c1 3.93%
CCOc1ccc(N(CC)S(=O)(=O)N2CCCC(C(=O)Nc3cc(Cl)ccc3OC)C2)cc1 (stereo not drawn) 0.812%
CCOC(=O)c1ccc(NC2SC(=O)N(Cc3cccc(C(=O)O)c3)C2=O)cc1 (stereo not drawn) -7.04%
Cc1ccc(CNC(=O)c2ccc(CSCc3ccccc3C)o2)cc1 1.71%
CCOc1ccc(Cn2c(CNS(=O)(=O)c3cccc(Cl)c3)nc3cccnc32)cc1 -6.05%
CCOc1cccc(C(=O)N(Cc2ccc(CC)cc2)C2CCS(=O)(=O)C2)c1 (stereo not drawn) -22.7%
CCCCN(CC)C(=O)Cn1ncc2c3ccccc3n(CCC)c2c1=O 3.88%
COc1ccc(-n2cc(C(=O)NCc3ccccc3Cl)c3ccccc3c2=O)cc1 -11.5%
COc1ccccc1NC(=O)CSC1=Nc2ccccc2C2=NC(CCC(=O)NCc3cccs3)C(=O)N12 (stereo not drawn) -3.85%
CCC(C)NC(=O)c1cccc(NC(=O)c2nsc3ccccc23)c1 (stereo not drawn) 0.71%
Cc1ccc(N(CC(=O)Nc2cccc(Cl)c2)S(=O)(=O)c2cccs2)cc1 4.87%
Cc1ccc(Cl)cc1N(C)C(=O)c1cn(C2CCCCC2)c(=O)c2c1c1ccccc1n2C 16.3%
CC(=O)C1=C(c2ccc(Cl)cc2)N(C(C)=O)n2c(nnc2C2CCCCC2)S1 -0.358%
Cc1ccc2c(c1)N(CCC(=O)NCc1ccccc1Cl)C(=O)CO2 5.3%
Cc1ccc2onc(CC(=O)Nc3ccc(C(C)C)cc3)c2c1 -6%
O=c1c2oc3ccccc3c2n(Cc2ccccc2F)c(=O)n1Cc1ccccc1 3.55%
Cn1c(=O)[nH]c(=O)c2c1nc(NCCc1ccccc1)n2Cc1ccc(F)cc1 1.1%
CC(=O)N1CCC(N(Cc2ccc(C)o2)C(=O)Nc2ccc(C)cc2)CC1 2.86%
COc1cc(NC(=O)c2cn(C3CCCC3)c(=O)c3c2c2ccccc2n3C)cc(OC)c1OC 22%
CCOc1ccccc1NC(=O)Cc1noc2ccc(C)cc12 -14.4%
CCOc1ccc2nc(NC(=O)c3nc(SC)ncc3Cl)sc2c1 -0.314%
Cn1cc(S(=O)(=O)N2CCOCC2)cc1C(=O)Nc1ccc(Cl)c(C(F)(F)F)c1 -8.95%
Cc1ccc(O)c(NC(=O)c2cc(-c3ccccc3O)no2)c1 -2.02%
Cc1cc(NC(=O)Nc2nnc(N(C)Cc3ccccc3)s2)ccc1Br -11.3%
COc1ccc2nc(N(Cc3cccnc3)C(=O)C3CCCCC3)sc2c1 -4.19%
CC1(C)C(=O)N(CC(=O)Nc2ccc(Br)cc2F)c2ccccc21 4.16%
COc1ccc(N2CCN(CCCNC(=O)Cn3c(-c4cccs4)cc4ccccc43)CC2)cc1 10.9%
CCOc1ccc(CNS(=O)(=O)c2ccc(-c3coc(C)n3)cc2)cc1 -6.74%
